Data reported in PubChem BioAssay AID445 (National Center for Advancing Translational Sciences (NCATS), 2006).
Screen size: about 110,000 compounds; about 40 (0.04%) were called active. Inconclusive results, whose numbers are uncertain, are shown with a selection of clear calls. Calls follow the shape of the dose curve; as a rule, active = well fitted curve in the direction sought with a large enough effect in the signal ratio (not every such curve was filed as active); inconclusive = small, poorly fitted or top-dose-only effect, or a change in a side signal; inactive = flat fitted curve, though single readings scatter; the % refers to the signal ratio. A potency beside an inconclusive call is a rough fit, not a confirmed value.

assay: IkB Signaling; conditions: ABC-DLBCL IkBa-CBG/CBR dual luciferase ratio (green luciferase fused to IkBa over red control in OCI-Ly3 lymphoma cells), 4 h; IkBa stabilization activation: at 57.1 µM (top of the series), scaled: untreated 0%, proteasome inhibitor 100% unless noted;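 as to IkBa stabilization activation: 0% = basal untreated cells and 100% = reference inhibitor full response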
Outline: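 Curves were fitted separately to fusion (green), unfused (red) and ratio luminescence, then classed by r2, magnitude and activity. Cells: OCI-Ly3, 4 h compound plus doxycycline at 37C; 10 uM MG-132 defined full response.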
Potency is read from the fitted curve at half-maximal effect.

Row | Structure (SMILES) | IkBa stabilization activation | Potency
1 | O=C(COc1ccc(Cl)cc1Cl)N1CCCCCC1 | inactive: -1.15% | –
2 | Cc1ccc(-c2nc3ncccc3o2)cc1NC(=O)c1cc2ccccc2o1 | inactive: 0.199% | –
3 | O=C(Cn1c(=O)nc(-c2ccccc2)c2cc(Cl)ccc21)NCCc1ccccc1 | inconclusive: -0.526% [signal inhibitor] | –
4 | Cc1ccc(O)c(-c2n[nH]c3c2C(c2ccccc2F)N(Cc2ccco2)C3=O)c1 (stereo not drawn) | inconclusive: -3.36% [signal inhibitor] | –
5 | Cc1sc2ncn(CC(=O)N3CCN(c4ccc(F)cc4)CC3)c(=O)c2c1S(=O)(=O)N1CCN(c2ncccn2)CC1 | inconclusive: -1.12% [signal inhibitor] | –
6 | CCOc1ccc(NC(=O)CN2CCN(c3ccc(Cl)cc3)CC2)cc1 | inconclusive: 0.219% [signal inhibitor] | –
7 | Cc1ccccc1-n1ncc2c(SCC(=O)NCc3cccs3)ncnc21 | inconclusive: 7.59% [signal inhibitor] | –
8 | O=C(c1cc(F)cc(F)c1)N1CCC(c2nc(-c3ccc(S(=O)(=O)N4CCCC4)cc3)no2)CC1 | inconclusive: 0.422% [signal inhibitor] | –
9 | O=C(NCc1ccco1)C(c1ccco1)N(C(=O)Cn1nnc2ccccc21)c1ccc2c(c1)CCC2 (stereo not drawn) | inconclusive: 0.934% [signal inhibitor] | –
10 | COc1ccc(OC)c(CCNC(=O)c2cc3c(=O)n(C)c4ccccc4c3n2C)c1 | inconclusive: -0.0216% [signal inhibitor] | –
11 | O=C(O)c1ccc(COc2ccc(Cl)cc2)o1 | – | inconclusive: 31.6 µM [signal inhibitor, partial curve]
12 | Cc1cc(C(=O)Cn2nnc3ccccc3c2=O)c(C)n1Cc1cccs1 | inconclusive: 2.37% [signal inhibitor] | –
13 | O=C(NCC1CCN(Cc2ccc(F)cc2)CC1)c1cc2ccc3cccnc3c2[nH]1 | inconclusive: 1.78% [signal inhibitor] | –
14 | CCOc1ccc(NC(=O)Cn2c(=O)oc3cc(S(=O)(=O)N4CCC(C)CC4)ccc32)cc1 | inconclusive: -0.288% [signal inhibitor] | –
15 | COc1ccc(-c2csc(N3CCN(C(=O)c4ccco4)CC3)n2)cc1 | inconclusive: -6.58% [signal inhibitor] | –
16 | COc1ccc(CCn2c(=O)c3cccnc3n(CC(=O)Nc3cccc(C)c3)c2=O)cc1OC | inconclusive: 0.491% [signal inhibitor] | –
17 | CCOC(=O)C1CCN(C(=O)Cn2nc(C)n3c(cc4cc(C)ccc43)c2=O)CC1 | inconclusive: 8.38% [signal inhibitor] | –

Row | Structure (SMILES) | IkBa stabilization activation | Potency
18 | COc1cc(-c2c(C#N)c(N)nc3c2CCCC3)ccc1O | inconclusive: 4.56% [signal activator] | –
19 | CCc1nc2c(sc3nc4c(cc32)COC(C)(C)C4)c(=O)n1Cc1ccco1 | – | inconclusive: 25.1 µM [signal inhibitor, partial curve]
20 | Cc1nc2c(C(=O)NCCc3ccc(Cl)cc3)c[nH]n2c(=O)c1Cc1ccccc1F | inconclusive: -3.54% [signal inhibitor] | –
21 | COc1c(S(=O)(=O)N2CCCCC2)ccc2c(S(=O)(=O)N3CCCCC3)cccc12 | inconclusive: 2.31% [signal inhibitor] | –
22 | O=C(Cn1cnc2c(nnn2-c2ccccc2)c1=O)NCCc1ccccc1 | inactive: 1.77% | –
23 | CCc1ccc(N2CCn3c2nc2c3c(=O)n(Cc3c(F)cccc3Cl)c(=O)n2C)cc1 | inconclusive: -0.898% [signal inhibitor] | –
24 | Cc1ccc2nc(NS(=O)(=O)c3ccc(Cl)cc3)c(Nc3ccc(C(=O)O)cc3)nc2c1 | – | inconclusive: 1 µM [signal inhibitor, partial curve]
25 | Cn1cnc(S(=O)(=O)N2CCC(C(=O)N3CCN(c4ccc(Cl)cc4)CC3)CC2)c1 | inactive: 0.604% | –
26 | Cc1nonc1NC(=O)CSc1nnc(-c2ccoc2C)n1CC(C)C | inactive: 0.158% | –
27 | CCOc1ccc2[nH]c3c(N4CCN(c5ccccn5)CC4)ncnc3c2c1 | inconclusive: -3.53% [signal inhibitor] | –
28 | CCc1ccc(Sc2cc(C(=O)NCCCOC(C)C)c3ccccc3n2)cc1 | inconclusive: 1.67% [signal inhibitor] | –
29 | N#Cc1ccc(OC(=O)c2cc(-c3ccc4c(c3)OCCO4)on2)cc1 | inactive: 2.61% | –
30 | Cc1cc(C)cc(OCC(=O)Nc2ccc(Cl)c(-c3nc4ncccc4o3)c2)c1 | inconclusive: 12% [signal inhibitor] | –
31 | CCOC(=O)c1oc2ccc(S(=O)(=O)n3nc(-c4cc(OC)cc(OC)c4)cc3N)cc2c1C | inconclusive: 11.7% [signal inhibitor] | –
32 | CC(=O)Nc1ccc(-n2c(CCC(=O)O)ccc2-c2ccc(C)cc2)cc1 | inconclusive: 7.31% [signal inhibitor] | –
33 | CCCn1c(=O)c2sccc2n2c(CCCC(=O)N3CCN(c4cccc(C)c4C)CC3)nnc12 | inconclusive: -1.3% [signal inhibitor] | –
